This passage reports relative growth results from the supplement of paper PMC9446081.

The whole screen tested about 39,000 compounds, of which about 220 (0.56%) showed activity. The list shows a part of the results.
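Also: static incubation at 37 °C against the wild-type strain, values averaged over two biological replicates.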

This assay deals with Escherichia coli K-12 BW25113. In words: relative growth (OD600 normalised to plate interquartile mean) (fraction); higher = less growth inhibition, active = 0.2 or less. The conditions noted are these: 50 µM; LB; incubation time: overnight (16-24 h).
Take `C[C@H](CO)N1C[C@H](C)[C@@H](CN(C)C(=O)Nc2ccccc2)OCCCC[C@H](C)Oc2ccc(NC(=O)Nc3cccc4ccccc34)cc2C1=O`: the relative growth is inactive: 1.04.

For the molecule `CC(=O)Oc1ccc2c(C)cc(=O)oc2c1`, the relative growth was inactive: 1.09.

Regarding `C[C@H]1CN([C@@H](C)CO)C(=O)c2cc(NC(=O)Cn3cnnn3)ccc2O[C@H]1CN(C)C(=O)Nc1ccc(C(F)(F)F)cc1`, the relative growth is inactive: 0.981.

As for `COc1ccc(NC(=O)Nc2ccc3c(c2)CC(=O)N([C@H](C)CO)C[C@@H](C)[C@H](CN(C)Cc2ccc(C(F)(F)F)cc2)O3)cc1`, the relative growth was inactive: 1.04.

On to `C[C@H](CO)N1C[C@H](C)[C@@H](CN(C)C(=O)Nc2ccc3c(c2)OCO3)OCCCC[C@H](C)Oc2ccc(NC(=O)C3CCCCC3)cc2C1=O`, for which the relative growth was inactive: 1.01.

For the molecule `C[C@H](CO)N1C[C@H](C)[C@H](CN(C)C(=O)Nc2ccc(C(F)(F)F)cc2)OCCCC[C@H](C)Oc2ccc(NC(=O)Nc3ccc4c(c3)OCO4)cc2C1=O`, the relative growth is inactive: 1.

As for `Cc1c(C(=O)O)c(O)cc2c1C(=O)c1c(O)c(C3OC(CO)C(O)C(O)C3O)c(O)c(O)c1C2=O` (stereo not given), the relative growth is inactive: 1.1.

`C[C@H](CO)N1C[C@H](C)[C@H](CN(C)C(=O)Nc2ccc(C(F)(F)F)cc2)Oc2ccc(NC(=O)CCC(F)(F)F)cc2C1=O`: the relative growth is inactive: 0.985.

In the case of `COc1ccc(NC(=O)Nc2ccc3c(c2)C(=O)N([C@@H](C)CO)C[C@@H](C)[C@@H](CN(C)C(=O)C2CCCCC2)OCCCC[C@@H](C)O3)cc1`, the relative growth was inactive: 0.993.

On to `C[C@H]1CN([C@@H](C)CO)C(=O)Cc2cc(NC(=O)Cc3ccccc3)ccc2O[C@H]1CN(C)S(C)(=O)=O`, for which the relative growth was inactive: 0.999.

`C[C@H]1CCCCO[C@H](CN(C)Cc2ccccc2)[C@@H](C)CN([C@@H](C)CO)C(=O)c2cc(NC(=O)NC3CCCCC3)ccc2O1`: the relative growth was inactive: 1.05.

Turning to `C[C@@H]1CCCCO[C@H](CN(C)C(=O)NC2CCCCC2)[C@H](C)CN([C@H](C)CO)C(=O)c2cc(NC(=O)Cc3ccccc3)ccc2O1`, the relative growth is inactive: 0.986.

In the case of `COc1ccc(NC(=O)Nc2cccc3c2O[C@H](CN(C)C(=O)Nc2ccc(C(F)(F)F)cc2)[C@@H](C)CN([C@@H](C)CO)C3=O)cc1`, the relative growth was inactive: 0.748.

Turning to `Cc1ccc(S(=O)(=O)Nc2ccc3c(c2)C(=O)N([C@H](C)CO)C[C@@H](C)[C@H](CN(C)Cc2ccc(C(F)(F)F)cc2)OCCCC[C@H](C)O3)cc1`, the relative growth is inactive: 0.988.

For the molecule `Cc1noc(C)c1NC(=O)N(C)C[C@@H]1Oc2ccc(NC(=O)Nc3cccc4ccccc34)cc2CC(=O)N([C@@H](C)CO)C[C@H]1C`, the relative growth is inactive: 0.967.
